# The list shows a part of the results. At the low end of the ranking the order means little.
# Molecular target: T1, GST-Rok (full length) (UniProt O34857)
# T1 sequence: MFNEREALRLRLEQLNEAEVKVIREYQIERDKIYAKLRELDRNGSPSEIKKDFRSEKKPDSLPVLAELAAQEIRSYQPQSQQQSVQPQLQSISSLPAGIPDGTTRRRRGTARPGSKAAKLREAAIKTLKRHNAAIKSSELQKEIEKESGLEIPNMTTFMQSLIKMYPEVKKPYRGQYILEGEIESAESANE
# Test: protein binding microarray;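 also: rank score from −0.5 (least bound) to 0.5 (best bound)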
# Settings: Rok is a gene silencer of Bacillus subtilis; high values mean tight binding; most listed sequences are background and not binding sites; double strand, one strand shown
row,Sequence,binding signal
1,GAAACCTC,-0.134 E-score
2,GCAAATGC,-0.0517 E-score
3,ACTAAGGG,-0.125 E-score
4,CAAAAATA,0.208 E-score
5,ATAGCCCA,0.0622 E-score
6,GGTAATGA,-0.0157 E-score
7,CTGTATCA,0.0787 E-score
8,CTACAGGA,-0.04 E-score
9,CCTAATGA,-0.219 E-score
10,GGAGTTAA,-0.0809 E-score
11,AATGTGTA,0.248 E-score
12,GCAGTTGA,-0.00855 E-score
13,ACGGTGGG,-0.168 E-score
14,ATGCGGCC,-0.295 E-score
15,AATAGTCC,0.052 E-score
16,AAATTGCC,0.052 E-score
17,ATAGACTA,0.186 E-score
18,CCTCGCGA,-0.307 E-score
19,GAGAACAC,0.105 E-score
20,AACGCCTA,-0.101 E-score
21,ATCACGCA,0.0255 E-score
22,AATGATTG,-9.44e-05 E-score
23,AACTTCGC,0.196 E-score
24,ATACTGCC,-0.0341 E-score
25,TGTATACA,0.351 E-score

row,Sequence,binding signal
1,CTAATGGC,-0.143 E-score
2,CCAGCGAG,-0.0971 E-score
3,ACACCCGA,-0.121 E-score
4,TAATTGTA,0.329 E-score
5,CTTAATGA,-0.158 E-score
6,CATCTCGC,-0.0694 E-score
7,ATAAGAAA,0.141 E-score
8,AATACGTA,0.331 E-score
9,CTCGTCAC,-0.0909 E-score
10,CCAAACTA,0.364 E-score
11,CTTTCCAC,-0.065 E-score
12,CCGTGTTA,0.139 E-score
13,GCGATCCA,-0.132 E-score
14,GCTGAAAA,-0.146 E-score
15,CTTTGGCA,-0.203 E-score
16,ATCCCGCA,-0.0218 E-score
17,AACGACAA,0.177 E-score
18,GCCGAAGA,-0.0924 E-score
19,CGCCTTCC,-0.298 E-score
20,ATTCTCTG,-0.0409 E-score
21,GACTTGAC,-0.201 E-score
22,GTCGAGAA,0.12 E-score
23,AGTATTTG,0.31 E-score
24,ATGAATAG,0.0694 E-score
25,GTGAGAAC,0.235 E-score

row,Sequence,binding signal
1,GAAAAAGC,-0.0987 E-score
2,ACGCGAGC,0.0365 E-score
3,ACCGCCAG,-0.207 E-score
4,AGCAAAAA,-0.141 E-score
5,CGGCGGAA,-0.346 E-score
6,ATTAGGAA,-0.0892 E-score
7,CAAAGCTG,-0.0568 E-score
8,ATGCCTGC,0.00111 E-score
9,AATGGATC,-0.0454 E-score
10,CGCCTATA,0.00134 E-score
11,ATAATACC,0.174 E-score
12,CTTCAAAC,-0.0389 E-score
13,ATCAACTC,0.07 E-score
14,ACGCGAAG,-0.115 E-score
15,AATGGTGC,-0.156 E-score
16,TCGCCACA,-0.0289 E-score
17,CCCAATAA,-0.0545 E-score
18,GCCGCGAC,-0.351 E-score
19,ACAACACA,0.0629 E-score
20,CCCTTTGC,-0.417 E-score
21,CGGCTTTC,-0.235 E-score
22,CCCAACAG,-0.0786 E-score
23,CCCGTAGA,-0.0912 E-score
24,AGCGTAAC,0.0187 E-score
25,ATATTCCG,0.263 E-score

row,Sequence,binding signal
1,GGGGGGGA,-0.456 E-score
2,AAGGGAGG,-0.323 E-score
3,ACGTGCTC,-0.158 E-score
4,CGTATCGA,0.0045 E-score
5,GAGCGGGA,-0.356 E-score
6,AGGAAAGA,-0.0268 E-score
7,GGCAGCAC,-0.241 E-score
8,CTAGGTTA,-0.132 E-score
9,CCGATACA,0.103 E-score
10,GGAATAAA,0.107 E-score
11,CGGAACTC,-0.02 E-score
12,GTAACGTA,0.0638 E-score
13,ACCGCTCC,-0.253 E-score
14,CATCTTGA,-0.0688 E-score
15,CCCTGTTA,-0.156 E-score
16,CCTTACCA,-0.205 E-score
17,GACGGGAA,-0.272 E-score
18,ACCTGCGA,0.00856 E-score
19,GCAGCGGA,-0.0182 E-score
20,CAACAGGA,-0.111 E-score
21,ATGAATGA,0.164 E-score
22,ACACCAAA,0.217 E-score
23,CCTACGGC,-0.167 E-score
24,AATTCAAT,0.175 E-score
25,AATTGAGA,-0.0173 E-score

row,Sequence,binding signal
1,CAAGATGA,-0.0205 E-score
2,ATCCGATA,0.0421 E-score
3,AACCCGCT,-0.3 E-score
4,TATTAGGA,0.0627 E-score
5,GAGCGTCA,-0.263 E-score
6,CGCACGCC,-0.233 E-score
7,GACCCGCC,-0.294 E-score
8,ATATTGAC,0.129 E-score
9,ATTCCGTG,0.0566 E-score
10,ATTAAGTA,0.347 E-score
11,CGTGGTGC,-0.343 E-score
12,AGCAAATG,0.0985 E-score
13,CGACGCAG,-0.163 E-score
14,CATCGCCC,-0.345 E-score
15,ATCACGGC,-0.0249 E-score
16,AACTTCTG,0.221 E-score
17,AGGCAGAC,-0.257 E-score
18,CTCGGCGC,-0.293 E-score
19,CTGAAATA,0.125 E-score
20,AATACCCG,-0.0221 E-score
21,GTATTTTA,0.411 E-score
22,GCCCAATA,0.0351 E-score
23,ACCAGAGG,-0.0915 E-score
24,AAACGCTA,0.21 E-score
25,TCCTAACA,0.0481 E-score

row,Sequence,binding signal
1,AGTGGTGG,-0.162 E-score
2,TCGCTCAA,0.0119 E-score
3,AGGTCTAA,0.0149 E-score
4,AAGGTCTC,-0.199 E-score
5,ACCTGTCA,0.0239 E-score
6,CGTGAATA,0.0233 E-score
7,ACTTACAT,0.349 E-score
8,CAACCGGG,-0.357 E-score
9,AGACCTCG,-0.163 E-score
10,CGGTAGCA,0.23 E-score
11,GAGAACCC,-0.287 E-score
12,GCTTATCA,-0.0929 E-score
13,CAGGTGAA,-0.105 E-score
14,AATTCGAC,0.0657 E-score
15,ATCCCTCC,-0.317 E-score
16,CTGGTACC,0.0466 E-score
17,GGACTCAA,-0.137 E-score
18,TCGAGAGA,0.172 E-score
19,CATTGACG,0.0483 E-score
20,CAACCCTG,-0.0639 E-score
21,CCGACAAC,-0.067 E-score
22,AGAGACAT,0.0316 E-score
23,ATGGACTG,-0.0223 E-score
24,GCTGATCC,-0.104 E-score
25,AGGGCCTG,-0.274 E-score

row,Sequence,binding signal
1,TCCCATAA,-0.0253 E-score
2,CAAGTCGG,-0.034 E-score
3,CGTGCTGA,-0.0953 E-score
4,AGTCTTGA,0.0243 E-score
5,CAAAAACG,0.0375 E-score
6,ATGTATGG,0.305 E-score
7,ACGAGATG,-0.0516 E-score
8,GGTAAACA,0.232 E-score
9,GCTTTTCC,-0.154 E-score
10,CGTATAGA,0.0326 E-score
11,CATCGCTA,0.0612 E-score
12,AGGAATAA,0.101 E-score
13,ATTAGGAC,0.0342 E-score
14,ACACTCCT,-0.0653 E-score
15,GTAGTGCA,0.0847 E-score
16,CCTTAAGG,-0.289 E-score
17,GACATATA,0.277 E-score
18,ACATCGCT,-0.196 E-score
19,ACGGCCAT,-0.0865 E-score
20,CGCTACAG,0.00389 E-score
21,CTCCATCA,-0.0646 E-score
22,ACCTGCCC,-0.228 E-score

# Reference: PMC6212790
